Laboratory results: ChEMBL document CHEMBL4888484, “Replenishing the malaria drug discovery pipeline: Screening and hit evaluation of the MMV Hit Generation Library 1 (HGL1) against asexual blood stage Plasmodium falciparum ,using a nano luciferase reporter read-out” (2022)
In all, about 150,000 compounds went through this assay and about 540 (0.36%) showed an effect of 50% or more. Some of the results follow.

system: Plasmodium falciparum; assay: Primary screen in NF54 nanoGlo assay, in single point, at 2uM, 72h; a lower Z score goes with more inhibition; type: functional, Erythrocyte; conditions: timepoint 72 hour

Compound | % Inhibition [%] | Z score
CC(C)c1nnc(NCCN2CCC[C@H](CO)C2)s1 | 7 | -0.89
COc1ccc(CC(=O)N2N=C(C)C[C@]2(O)c2cccnc2)cc1 | 46 | -4.92
COc1ccc(OC)c(S(=O)(=O)N2CCCCCCNC(=O)[C@@H]3CCC[C@@H]32)c1 | -7 | 0.87
Cc1cccc(C)c1NC(=O)c1csc(-c2ccnc(N3CCOCC3)c2)n1 | -1 | 0.17
Cc1onc(NC(=O)NCC(F)F)c1C | -10 | 0.98
O=C(Cc1ccccc1)Nc1ccc(NC(=O)C(c2ccccc2)c2ccccc2)cc1 | -2 | 0.46
c1nc2ccc(-c3nc([C@H]4CCOC4)no3)cc2s1 | 9 | -1.55
CC(C)Nc1ccccc1C(=O)N1CCN2CCN(C)C[C@H]2C1 | -6 | 0.88
CC(=O)N(c1cccc(C)c1)[C@H]1CCS(=O)(=O)C1 | 1 | -0.15
COCC(C)(C)N(C)C(=O)c1coc(C2CCOCC2)n1 | -5 | 0.8
CCCN(CC1CCCO1)C(=O)CC1(c2cccc(F)c2)CC(=O)N(C)C1=O (stereo not drawn) | 0 | 0.01
Cc1nccc(C2CCN(C(=O)c3cn4c5c(cccc5c3=O)CC4)CC2)n1 | -4 | 0.53
CN(C)c1nccc(CNS(=O)(=O)c2ccc3c(c2)CC(C)(C)O3)n1 | -9 | 1.11
CCOc1cccnc1C(=O)N1CCN(c2cccc(C)n2)C[C@@H]1C | -17 | 2.26
CCCOc1cccc(Cn2ccn3c(=O)cc(C)nc23)c1 | -9 | 1
O=C1CCCN1c1ccc(Cn2nc3ccc(-c4ccc(Cl)cc4)nn3c2=O)cc1 | -1 | 0.15
N#Cc1c[nH]c(C(=O)N[C@H]2CCOC[C@@H]2O)c1 | -17 | 3.15
CCOC(=O)c1cnn(-c2nc(-c3ccccc3)cs2)c1CN(C)C[C@H]1COCCO1 | -9 | 1.28
O=C(Cc1cccs1)N1CCC[C@H](OCc2nc(C3CC3)no2)C1 | -5 | 0.59
C[C@H](O)c1ccc(-c2ccc(CNCCc3c[nH]c4ccccc34)o2)cc1 | -13 | 1.54
O=C(Nc1cccc(N2CCCC2=O)c1)c1nccnc1-c1nc2ccccc2s1 | -6 | 0.8

Compound | % Inhibition [%] | Z score
CC(C)NC(=O)CNC(=O)c1ccc(Br)cc1 | 6 | -1
CCC1=C(c2ccc(C)cc2)S(=O)(=O)N=C1N1CCC(C(=O)N[C@@H](C)CC)CC1 | 1 | -0.22
CC1CC(C)C2N(C1)c1ccccc1CC21C(=O)CC(C)(C)CC1=O (stereo not drawn) | -10 | 1.94
Cn1cnc(C=Cc2ccncc2C#N)c1 | -19 | 2.07
COCC(=O)N1CC(Oc2nc3ccccc3s2)C1 | 5 | -0.51
O=C(C1CC1c1ccc(Cl)cc1Cl)N1CC(O)CC1CO (stereo not drawn) | -13 | 1.8
C[C@H]1OCCN(C(=O)c2ccc(N(C)C)nc2)[C@@H]1C(N)=O | -4 | 0.77
CN(C)C(=O)c1nc2ccc(Cl)cn2c1-c1ncc[nH]1 | 13 | -1.86
CC(CO)N(C)C(=O)NCC1CC1c1ccc(Cl)cc1Cl (stereo not drawn) | -6 | 0.59
CCCC(=O)Nc1ccc(-n2ccnc2-c2[nH]cnc2C)cc1OC | 10 | -1.25
Cc1cc(C(=O)N2CCC(F)(C(=O)NCc3ccccc3)CC2)n(C)n1 | 9 | -1.11
COc1nn(C)cc1C(=O)Nc1ccc(Cl)c(N2CCCS2(=O)=O)c1 | -19 | 2.75
CN(C(=O)CC(F)(F)F)[C@@H]1COC[C@H]1O | 8 | -1
COc1ccc2c(CNC3CCC(C)CC3)c(C(=O)O)[nH]c2c1 (stereo not drawn) | -13 | 1.28
COc1ccccc1NC(=O)c1cnn(-c2cc(-c3nc(C(C)C)no3)ccn2)c1C | -5 | 0.72
CCN1C(=O)c2ccc(Cl)cc2NC12CCN(C(=O)CC(C)(C)C)CC2 | 2 | -0.22
Cc1cccc2c(CCC(=O)N(CCC(=O)O)C3CCOCC3)c[nH]c12 | -8 | 1.09
O=S(=O)(NCc1cccc(-n2ccnc2)c1)c1cccnc1 | 0 | -0.01
COCC1(NC(=O)[C@H](C)c2cncnc2)CCCC1 | -3 | 0.32
Cn1c(CN2CCCCCC2)nc2cc(NC(=O)c3cccc(Br)c3)ccc21 | -4 | 0.7
C[C@H](NC(=O)c1ccc(B(O)O)cc1)C1CCC(F)(F)CC1 | -11 | 1.08

Compound | % Inhibition [%] | Z score
Cc1ccc(CNC(=O)CN2CCC3(CC2)NC(c2ccc(OC(F)(F)F)cc2)=NO3)cc1 | 30 | -3.99
Cc1ccc(C(=O)Nc2nc3c(s2)CN(S(=O)(=O)c2ccccc2)CC3)cc1Br | -8 | 0.74
CC(C)c1ccc(-c2ccnc3c(C(=O)N4CCN(c5ccccc5F)CC4)cnn23)cc1 | 34 | -3.84
Cc1nc(CCC(=O)N2CCCCCC2)n(CCO)n1 | 14 | -1.82
Cc1cnc(C)c(-c2cccc(-c3ccn(C[C@H](O)c4ccccc4)n3)c2)n1 | 3 | -0.46
CC(C)c1cc(NCCCn2ccnn2)nc(N)n1 | -5 | 0.75
O=C(CCCc1ccccc1)NC1CC(O)C(CO)C1 (stereo not drawn) | -8 | 1.28
NC(=O)c1cccnc1NCCc1cn2ccccc2n1 | -5 | 0.73
Cn1ncc2c(=O)n(Cc3cccc4cccnc34)cnc21 | -4 | 0.48
Fc1cccc2c1CC[C@@H]2n1cc(C2CCOC2)nn1 (stereo partly drawn) | 2 | -0.22
Cc1cc(C)n(CCN(C)C(=O)CCOc2ccccc2)n1 | -23 | 2.2
O=C(Cc1ccccc1F)Nc1ccnn1C1CCCC1 | 3 | -0.42
CN1CCN(c2cccc(NC(=O)N3C[C@H]4CC[C@@H](C3)N(C)C4=O)c2)C1=O | -7 | 1.25
CC(C)NC(=O)c1nsc(C(=O)N2CCCC2)c1N | -16 | 1.85
Cc1nc2ccc(N(C)C(=O)c3nc(C)c(C)[nH]c3=O)cc2s1 | -12 | 1.23
Cc1nnsc1CN(C)C(=O)Cn1cnc2ccccc2c1=O | -14 | 1.39
CC[C@H](Nc1ncc(Cl)cn1)C1CCOCC1 | -5 | 0.48
COC(=O)CCC(=O)N1CCN(c2nc3nccc(-c4ccc(Cl)c(Cl)c4)n3n2)CC1 | -25 | 2.25
CN(C(=O)c1cscn1)c1ncccc1Br | -1 | 0.16
Cc1nc(-c2cc(C(C)C)n3ncnc3n2)n(C2CCN(C)CC2)n1 | -7 | 1.18
Cc1ccc(S(=O)(=O)NC[C@H]2OC[C@@H](NC3COC3)[C@@H]2O)cc1 | -4 | 0.61

Compound | % Inhibition [%] | Z score
CCN(CC)C(=O)CCC(=O)Nc1cccc(-n2c(C)c[nH]c2=O)c1 | -9 | 1
O=C(NC(c1ccccc1)c1ccccc1)[C@@H]1CCCc2c1[nH]c1ccc(Br)cc21 | -3 | 0.57
Cc1cc(C)c(S(=O)(=O)N2CC(OCc3ccccc3Cl)C2)c(C)c1 | -10 | 1.76
O=C(Cc1cccc(F)c1)N1CCC2(CC1)CN(c1ncccn1)C[C@@H]2CO | -9 | 1.01
O=C(CCn1cccn1)NC[C@H]1CCCN1C(=O)CCn1cccn1 | -13 | 1.88
COc1ccc(OC)c(NC(=O)N2CCC[C@@H]2CN2CCCCC2)c1 | -11 | 2.03
CN(CC(=O)Nc1sc2c(c1C(N)=O)CCC2)Cc1cccs1 | 20 | -2.35
O=C(NC1(CN2CCN(c3ccc(F)cc3)CC2)CC1)c1cccnn1 | -13 | 1.42
O=C(NC[C@H](O)c1ccc(-c2ccco2)o1)c1ccc2c(c1)OCO2 | 21 | -2.88
CC(C)(C)Oc1ccc(C(=O)N2CC[S@+]([O-])C(C)(C)C2)cn1 | -2 | 0.27
Cc1ccccc1CC(=O)N1CCc2nncn2CC1 | -6 | 0.78
CC(C)NS(=O)(=O)Cc1ccccc1C#N | 4 | -0.6
COc1ccc([C@H]2Oc3ccc(C)cc3-n3c(-c4ccc(C)cc4)c4c(=O)n(C)c(=O)n(C)c4c32)cc1 | -10 | 1.7
CC(CNC(=O)NCC(O)C1CC1)c1ccc(F)c(F)c1 (stereo not drawn) | 36 | -4.85
O=C(CCc1c(-c2ccc(Cl)cc2)nc2ccc(-c3ccccc3Cl)cn12)N1CCOCC1 | 10 | -1.12
O=C(O)[C@@H]1CC[C@H](C(=O)N(CCc2ccccc2F)C2CCCC2)O1 | -2 | 0.36
CC1(C)CC(C)(C)c2ccccc2CN1 | 3 | -0.41
CC(C)C1NC2(C(=O)Nc3ccccc32)C2C(=O)N(c3cccc4ccccc34)C(=O)C12 (stereo not drawn) | 4 | -0.51
COc1cc(OC)nc(NS(=O)(=O)c2c(C)nn(C)c2C)n1 | -8 | 1.27
CN1N=C(C(=O)NCCc2ccc3c(c2)OCCO3)CCC1=O | -1 | 0.19
CCc1ccc(-n2c(=O)c3c(n2CC(=O)Nc2ccc(C)c(F)c2)Oc2ccc(Cl)cc2C3)cc1 | -15 | 2.55
